{
  "source": "PubChem BioAssay AID686978",
  "about": "(National Center for Advancing Translational Sciences (NCATS), 2013)",
  "note": "Values joined by “and” are separate entries in the source; they are usually repeats but may differ in a detail not shown here. Equal values may be shown once. In all, about 420,000 compounds went through this assay and about 64,000 (15%) were called active. The shares of active, inactive and inconclusive entries below differ from those in the screen. Calls follow the shape of the dose curve; as a rule, active = well fitted inhibition curve with a large enough effect; inconclusive = small, poorly fitted or top-dose-only effect; inactive = flat fitted curve, though single readings scatter. Potencies beside an inconclusive call are fits to weak or partial responses and may not hold up. Potency is read from the fitted curve at half-maximal effect; tags tell the direction and shape of the fitted curve.",
  "data": [
    {"experiment": "qHTS for Inhibitors of human tyrosyl-DNA phosphodiesterase 1 (TDP1): qHTS in cells in absence of CPT; also: nearly all actives have a fitted effect of over 55% in size", "conditions": "DT40 Tdp1-/- hTDP1 cells, no CPT, ATP luminescence, 48 h; series mostly up to 46.2 µM", "procedure,_shortened": "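Compound effects on proliferation are scored in DT40 Tdp1-/-;hTDP1 cells in the absence of CPT. ATP levels (CellTiter-Glo luminescence) are recorded after a ≥48 hr, 37 °C incubation.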", "values": [
      {"smiles": "Cc1ccc(C(=O)C2CCN(CC(=O)NC3CCCCC3)CC2)cc1", "Potency": "inconclusive: 23.1 µM [inhibitor, single point]"},
      {"smiles": "C[C@@H](CSc1ccc(Br)cc1)CN1CC[C@H](C(C)(C)C)CCC1=O", "Potency": "inconclusive: 316 nM [inhibitor, full curve, poor fit] and inconclusive: 25.9 µM [inhibitor, single point]"},
      {"smiles": "COc1ccccc1C(=O)Nc1sc(C(=O)N2CCCC2)c(C)c1C#N", "Potency": "inactive"},
      {"smiles": "CCc1ccc(N2C(=O)C3C4C=CC(CC4)C3C2=O)cc1", "note": "(stereo not drawn)", "Potency": "inconclusive: 18.4 µM [inhibitor, single point]"},
      {"smiles": "CSc1ccc(-c2nc(O)c3cnccn23)cc1", "Potency": "inactive"},
      {"smiles": "Cc1ccc2nc(N3CC(C)OC(C)C3)nc(-c3ccccc3)c2c1", "note": "(stereo not drawn)", "Potency": "inconclusive: 20.6 µM [inhibitor, single point]"},
      {"smiles": "CNC(=O)C1C2C=CC3(O2)C1C(=O)N(CCOC)C3C(=O)NCc1ccc(OC)cc1", "note": "(stereo not drawn)", "Potency": "inactive"},
      {"smiles": "O=C(C[n+]1cc(-c2ccc(Cl)cc2)n2c1CCC2)Nc1nc(-c2ccccc2)cs1", "Potency": "active: 5.8 µM"},
      {"smiles": "COCCCNC(=O)CC1C[C@H](C(=O)N2CCCCC2)[C@@]2(C)c3[nH]c4ccc(OC)cc4c3CCN2C1=O", "note": "(stereo partly drawn)", "Potency": "inactive"},
      {"smiles": "CC(C)Oc1ccc(F)cc1-c1cc(C(=O)N2CCc3ccccc3C2)[nH]n1", "Potency": "inconclusive: 23.1 µM [inhibitor, single point]"},
      {"smiles": "COc1cccc(Cn2c(=O)c(-c3ccc(Cl)cc3)nc3cnc(N4CCNCC4)nc32)c1", "Potency": "active: 5.8 µM"},
      {"smiles": "Cc1ccccc1C(=O)OCc1cc(=O)n2nc(-c3cccs3)sc2n1", "Potency": "inactive"},
      {"smiles": "COc1ccccc1C(=O)COC(=O)Cc1c[nH]c2ccccc12", "Potency": "inconclusive: 9.2 µM [inhibitor, partial curve]"},
      {"smiles": "CCOC(=O)c1c(CN2CCCCC2)n(C)c2cc(Br)c(O)c(CN(C)C)c12", "Potency": "inconclusive: 11.6 µM [inhibitor, partial curve]"},
      {"smiles": "COc1ccc2c(c1)c1nnc(SCC(=O)N3C(C)CCCC3C)nc1n2C", "note": "(stereo not drawn)", "Potency": "inconclusive: 29.1 µM [inhibitor, single point]"},
      {"smiles": "CN(C(=O)c1cccc(NC(=O)Cc2ccc(NC(=O)C3CCN(C(=O)C4CCC4)CC3)cc2)c1)C1CCC1", "Potency": "inconclusive: 16.4 µM [inhibitor, single point]"},
      {"smiles": "Clc1ccc(-n2nnnc2Sc2ncnc3sccc23)cc1", "Potency": "active: 1.84 µM"},
      {"smiles": "COc1c(C=O)c(O)cc2c1C(=O)c1ccccc1C2=O", "Potency": "inconclusive: 29.1 µM [inhibitor, single point] and inconclusive: 39.8 µM [inhibitor, single point]"},
      {"smiles": "C=CCN=C1NN=C(c2cc(C)n(CC=C)c2C)CS1", "Potency": "inconclusive: 18.4 µM [inhibitor, single point]"},
      {"smiles": "CCOC(=O)/C=C/c1ccccc1S(=O)(=O)NC(C)(C)C", "Potency": "inactive"},
      {"smiles": "Cc1cccc(Nc2c([N+](=O)[O-])cc(C(=O)N3CC(=O)Nc4ccccc43)cc2[N+](=O)[O-])c1", "Potency": "inconclusive: 29.1 µM [inhibitor, single point]"},
      {"smiles": "O=C(Nc1ccccc1Br)c1ccc2nccnc2c1", "Potency": "inconclusive: 16.4 µM [inhibitor, partial curve, poor fit]"},
      {"smiles": "Cn1c(=N)n(CC(=O)c2ccc(Cl)c(Cl)c2)c2ccccc21", "Potency": "active: 16.4 µM"},
      {"smiles": "Cc1nc2c(cc1C(=O)N/N=C/c1ccc(O)c(O)c1)c(=O)n(C)c(=O)n2C", "Potency": "inconclusive: 18.4 µM [inhibitor, partial curve]"},
      {"smiles": "O=C(CN(c1ccc(F)cc1)S(=O)(=O)c1ccccc1)NCc1ccco1", "Potency": "inconclusive: 23.1 µM [inhibitor, partial curve, poor fit]"},
      {"smiles": "Cc1ccc(OCC(=O)c2cc(C)n(Cc3ccco3)c2C)c([N+](=O)[O-])n1", "Potency": "inconclusive: 20.6 µM [inhibitor, partial curve]"},
      {"smiles": "Cn1cccc1C(=O)NC(=O)CSc1cccc[n+]1[O-]", "Potency": "inconclusive: 29.1 µM [inhibitor, single point]"},
      {"smiles": "COc1cc(C(=O)N2CCCC(c3cc(C(=O)NCc4ccc(F)cc4)no3)C2)cc(OC)c1C", "note": "(stereo not drawn)", "Potency": "inconclusive: 23.1 µM [inhibitor, single point]"},
      {"smiles": "COc1ccc(N2CCN(c3ncnc4scc(-c5ccc(C)cc5)c34)CC2)cc1", "Potency": "inconclusive: 20.6 µM [inhibitor, single point]"},
      {"smiles": "C=CCn1c(COc2ccc(Cl)cc2)nnc1SCC(=O)N/N=C/c1cccc(O)c1", "Potency": "inconclusive: 18.4 µM [inhibitor, single point]"},
      {"smiles": "CN(C)CCN(Cc1ccco1)C(=O)c1oc2ccccc2c1NC(=O)c1ccccc1", "Potency": "inconclusive: 20.6 µM [inhibitor, single point]"},
      {"smiles": "O=C(NCCCN1CCOCC1)c1ccc(CS(=O)(=O)Cc2ccc(Cl)cc2)o1", "Potency": "inactive"},
      {"smiles": "COc1cc(C(=O)NCCC(c2ccccc2)c2ccccc2)cc(OC)c1OC", "Potency": "inconclusive: 25.9 µM [inhibitor, single point]"}
    ]}
  ]
}
